Assay results taken from PubChem BioAssay AID1460 (National Center for Advancing Translational Sciences (NCATS), 2008).
Values joined by “and” are separate entries in the source; they are usually repeats but may differ in a detail not shown here. Identical values can stand only once. About 5,800 (2.1%) of roughly 270,000 compounds were called active. The inconclusive results got no clear call from the source; some entries with a clear call stand among them for comparison. Calls follow the shape of the dose curve; as a rule, active = well fitted inhibition curve with a large enough effect; inconclusive = small, poorly fitted or top-dose-only effect; inactive = flat fitted curve, though single readings scatter. A potency beside an inconclusive call is a rough fit, not a confirmed value.

molecular target: Microtubule-associated protein tau (Homo sapiens) (UniProt P10636); assay: qHTS for Inhibitors of Tau Fibril Formation, Thioflavin T Binding; settings: recombinant tau K18 P301L, heparin-induced fibrillization, ThT fluorescence; series mostly up to 57.4 µM; activity, negative = inhibition: at the top concentration; also: nearly all actives have a fitted effect of over 55% in size
Chain of UniProt P10636 (P10636 whole entry, looked up): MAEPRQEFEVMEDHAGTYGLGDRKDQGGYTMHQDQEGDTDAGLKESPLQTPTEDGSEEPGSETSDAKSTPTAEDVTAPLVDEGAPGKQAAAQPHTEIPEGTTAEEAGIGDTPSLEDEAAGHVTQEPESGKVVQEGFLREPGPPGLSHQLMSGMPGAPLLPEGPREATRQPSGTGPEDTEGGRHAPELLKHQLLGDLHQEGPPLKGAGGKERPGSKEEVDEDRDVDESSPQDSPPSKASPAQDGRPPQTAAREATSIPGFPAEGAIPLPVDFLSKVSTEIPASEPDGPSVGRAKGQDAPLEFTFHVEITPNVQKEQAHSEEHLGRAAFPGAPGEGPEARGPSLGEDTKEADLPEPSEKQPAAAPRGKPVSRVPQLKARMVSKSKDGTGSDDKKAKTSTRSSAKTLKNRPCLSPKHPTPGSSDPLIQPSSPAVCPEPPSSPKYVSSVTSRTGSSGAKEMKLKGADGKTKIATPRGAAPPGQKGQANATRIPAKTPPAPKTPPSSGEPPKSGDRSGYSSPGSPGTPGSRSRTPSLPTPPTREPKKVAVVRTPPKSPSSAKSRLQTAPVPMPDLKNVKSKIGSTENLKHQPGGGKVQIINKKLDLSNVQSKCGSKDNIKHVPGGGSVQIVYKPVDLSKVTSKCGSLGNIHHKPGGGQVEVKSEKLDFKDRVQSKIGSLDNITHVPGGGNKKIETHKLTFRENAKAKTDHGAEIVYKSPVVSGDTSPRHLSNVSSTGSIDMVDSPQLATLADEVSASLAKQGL
Procedure, shortened: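 ThT emission at 510 nm, taken 1 hr after adding 30 uM dye, quantifies aggregates formed when 20 uM heparin acts on human tau K18 P301L for 6 hr at 37 C.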
% is scaled to controls: 0 for no effect and ±100 for the full control effect; potency is read from the fitted curve at half-maximal effect; tags tell the direction and shape of the fitted curve.

Structure (SMILES)	activity, negative = inhibition	Potency
CSc1ncc(Cl)c(C(=O)Nc2cccc(C)c2)n1	inactive: -9.3%	–
CN(C)c1ccc(C(=O)/C=C/c2ccco2)cc1	–	active: 10 µM
OCCNc1c2ccccc2nc2ccccc12	inactive: -15.9%	–
COc1ccccc1NC(=O)c1cc(C)oc1C	–	inconclusive: 14.1 µM [inhibitor, partial curve]
COc1ccc(S(=O)(=O)N(C)c2ccc(OCC(=O)Nc3cc(C)on3)cc2)cc1	inactive: -5.84%	–
Cc1onc(-c2ccccc2)c1C(=O)Nc1nnc(N2CCCCCC2)s1	–	inconclusive: 17.8 µM [inhibitor, single point]
COCCNCC(=O)Nc1ccc(C)c(S(=O)(=O)N2CCCCC2)c1	inactive: -6.87%	–
COc1ccc(Oc2nc(-c3ccccn3)ncc2OC)cc1	inactive: -8.84%	–
Cc1cc(C)n2nc(-c3sccc3-n3c(C)ccc3C)cc2n1	–	inconclusive: 20 µM [inhibitor, partial curve]
COc1ccccc1N1CCN(CC(O)COc2ccc(C)cc2C(C)(C)C)CC1 (stereo unspecified)	–	inconclusive: 14.1 µM [inhibitor, partial curve]
Fc1ccc(N/N=C/C=C/c2ccccc2)c(F)c1	–	inconclusive: 14.1 µM [inhibitor, partial curve]
Nc1ccc(-n2ccnc2)cc1	–	inconclusive: 25.1 µM [inhibitor, partial curve]
CCOC(=O)c1c(NC(=O)Cn2cnc3scc(-c4ccc(C)cc4)c3c2=O)sc(C)c1C	inactive: -7.97%	–
O=C1N=C(N2CCOCC2)S/C1=C\C=C/c1ccccc1	–	inconclusive: 15.8 µM [inhibitor, partial curve]
O=C(C1CC1c1ccccc1)N1CCN(c2cccc(Cl)c2)CC1 (stereo unspecified)	–	inconclusive: 15.8 µM [inhibitor, partial curve]
COc1ccc2c(c1)c1c(c(=O)n(-c3ccccc3C)c(=O)n1Cc1c(F)cccc1Cl)n2C	inactive: 3.59%	–
COc1cc(/C=N\NC(=O)CNC(=O)c2cccc([N+](=O)[O-])c2)ccc1O	inactive: -14.4%	–
Cc1cccc(Nc2c3c(nc4nncn24)CCC3)c1C	inactive: 0.357%	–
O=C(CN1CCN(CCN2C(=O)c3cccc4cccc(c34)C2=O)CC1)c1ccc(Cl)cc1	–	inconclusive: 17.8 µM [inhibitor, partial curve]
COc1ccc(OC)c(NC(=O)CNC(=O)c2ccc([N+](=O)[O-])cc2)c1	inactive: -10.2%	–
COc1ccccc1OCc1nc(Cc2ccc(Cl)cc2)no1	–	inconclusive: 39.8 µM [inhibitor, single point]
Cc1c(Cc2ccccc2)c(=O)n2c([nH]c3ccccc32)c1C#N	inactive: -15.9%	–
NC(=NCc1ccc(Cl)cc1Cl)NC(=O)c1nc(Cl)c(N)nc1N	–	inactive and inconclusive: 39.8 µM [inhibitor, single point]

Structure (SMILES)	activity, negative = inhibition	Potency
Cc1ccc(C(=O)Nc2ccc3nc(N4CCCCC4)cc(C)c3c2)cc1F	inactive: 10.8%	–
Cc1cccc(Oc2ncnc(N)c2[N+](=O)[O-])c1	–	inconclusive: 17.8 µM [inhibitor, single point]
CCn1c(SCC(N)=O)nc2sc3c(c2c1=O)CCN(C)C3	–	inconclusive: 15.8 µM [inhibitor, partial curve]
COc1ccc(CCN2C(=O)CC(NNc3ccc([N+](=O)[O-])cc3)C2=O)cc1OC (stereo unspecified)	–	active: 11.2 µM
O=C(COC(=O)CSc1nnc(-c2ccc(Cl)cc2)o1)Nc1cc(Cl)cc(Cl)c1	–	inconclusive: 22.4 µM [activator, partial curve]
CCOC(=O)c1c(N2C(=O)CC(Sc3ccccc3C(=O)O)C2=O)sc2c1CCCC2 (stereo unspecified)	–	inconclusive: 28.2 µM [inhibitor, single point]
Cc1ccc(-c2csc3nnc(SCC(=O)N4CCN(Cc5ccccc5)CC4)n23)cc1	–	inconclusive: 17.8 µM [inhibitor, partial curve]
Cc1ccc(NC(=O)Nc2cnc3ccccc3c2)cc1	–	inconclusive: 31.6 µM [activator, single point]
N=C1S/C(=C\c2ccc(-c3ccccc3C(=O)O)o2)C(=O)N1c1ccc2c(c1)OCO2	–	active: 3.55 µM
CCN(CC)S(=O)(=O)c1ccc2c(c1)c(=O)c(C(=O)NCCCN(C)c1ccccc1)cn2C	inactive: -4.58%	–
CCOC(=O)C1CCCN(C(=O)Cn2nc(CC)n3c(cc4occc43)c2=O)C1 (stereo unspecified)	inactive: 1.32%	–
COc1ccc(/C=N/Nc2ncc(-c3ccccc3)cn2)c(OC)c1	–	inconclusive: 3.16 µM [inhibitor, full curve]
COc1ccc(C2=C(CN(C)C)C(c3ccccc3)c3ccccc3O2)cc1 (stereo unspecified)	–	inconclusive: 14.1 µM [inhibitor, partial curve, poor fit] and inconclusive: 39.8 µM [inhibitor, single point]
O=C(CSc1nc2nn(-c3ccccc3)c(=O)c-2c2n1CCCCC2)NCCCc1ccccc1	–	inconclusive: 39.8 µM [inhibitor, partial curve]
COCC(=O)N1c2nc(-c3ccco3)nn2C2(CCCCC2)[C@@H]2CCCC[C@@H]21	inactive: 0.743%	–
COc1ccc(/C=N\NC(=O)CCN2CCN(c3ccccc3)CC2)cc1OC	–	inconclusive: 25.1 µM [inhibitor, partial curve]
CCc1ccc2nc(N3C(=O)C(O)=C(C(=O)c4ccco4)C3c3cccs3)sc2c1 (stereo unspecified)	–	inconclusive: 12.6 µM [inhibitor, partial curve]
CCCN(C(=O)c1cc2c(=O)oc3ccccc3c2s1)c1ccccc1C	inactive: -8.01%	–
Cc1ccc(OCC(=O)Nc2cccc(S(=O)(=O)N3CCCCCC3)c2)c([N+](=O)[O-])n1	inactive: -11.7%	–
Cc1nc2c(c(=O)n1CCC1=CCCCC1)c1nc3ccccc3nc1n2/N=C/c1ccco1	–	inconclusive: 20 µM [inhibitor, partial curve]
CCOc1ccc2c(c1)c(=O)c(C(=O)c1ccc(CC)cc1)cn2CC(=O)Nc1ccccc1C	–	inconclusive: 7.94 µM [inhibitor, full curve]
Cc1ccc(C)c(N2CCN(c3nc4c(S(=O)(=O)c5ccccc5)nnn4c4ccc(Cl)cc34)CC2)c1	inactive: -4.71%	–
COc1ccc(N2CCN(c3cc(C)nc4nncn34)CC2)cc1	–	inconclusive: 15.8 µM [inhibitor, partial curve]
